# In the supplement of paper PMC8728848:
# Some of the results follow.
# B1: Epa13 (Candida glabrata) (protein)
# chain: MGSSHHHHHHSSGLVPRGSHMASDSSENGYAHGCSPSIRAKLKPGLSMEIYSYALRPTDDHCWDSAYLDPMFPRTGYLTHKLLGKAEGIIGPLNFLAKNPACIPAVSTLPLAFHFPKPFTITNFTMLLYGYLSPKKTGKYTFKLLADDLLLMNFGADNAFDCCSHDATKDNIGEYVAYSVWPGVNKNVTVYLESGIYYPLRLFFNNRDAIAQLDFAYYFNDSPIRQTDFSGMFFSIPDSVKCPANI
# Columns and labels:
# Assay in all cases: glycan array binding signal (z-score within array); higher = stronger binding
# Details in all cases: glycan notation: IUPAC condensed, linker removed
# [1] = biological target: Gal6S(b1-4)Glc6S
# Method in brief: (§1)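 Glycan array binding is given as a within-array Z-score, which can be read as non-binding when negative. The arrays, 3228 of them, came from the Consortium for Functional Glycomics database and were retained only where the protein sequence was available. Z-scores were averaged across arrays of the same protein sequence at different concentrations or buffers and across linkers.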
# [2] = biological target: Gal6S(b1-4)GlcNAc
# Method in brief: as §1
# [3] = biological target: Gal6S(b1-4)GlcNAc6S
# Method in brief: as §1
# [4] = biological target: GalNAc(a1-3)Gal
# Method in brief: as §1
# [5] = biological target: GalNAc(a1-3)GalNAc
# Method in brief: as §1
# [6] = biological target: GalNAc(a1-3)GalNAc(b1-3)Gal(a1-4)Gal(b1-4)Glc
# Method in brief: as §1
# [7] = biological target: GalNAc(a1-3)GalNAc(b1-3)Gal(a1-4)Gal(b1-4)GlcNAc
# Method in brief: as §1
# [8] = biological target: GalNAc(b1-3)Gal
# Method in brief: as §1
# [9] = biological target: GalNAc(b1-3)Gal(a1-4)Gal(b1-4)GlcNAc
# Method in brief: as §1
# [10] = biological target: GalNAc(b1-3)Gal(a1-4)Gal(b1-4)GlcNAc(b1-3)Gal(b1-4)Glc
# Method in brief: as §1
# [11] = biological target: GalNAc(b1-3)Gal(a1-6)Gal(b1-4)Glc
# Method in brief: as §1
# [12] = biological target: GalNAc(b1-3)GalNAc
# Method in brief: as §1
# [13] = biological target: GalNAc(b1-3)GlcNAc
# Method in brief: as §1
# [14] = biological target: GalNAc(b1-4)Gal(b1-4)Glc
# Method in brief: as §1
# [15] = biological target: GalNAc(b1-4)GlcNAc
# Method in brief: as §1
# [16] = biological target: GalNAc(b1-4)GlcNAc(b1-2)Man
# Method in brief: as §1
# [17] = biological target: GalNAc(b1-4)GlcNAc(b1-2)Man(a1-3)[GalNAc(b1-4)GlcNAc(b1-2)Man(a1-6)]Man(b1-4)GlcNAc(b1-4)GlcNAc
# Method in brief: as §1
# [18] = biological target: GalNAc(b1-4)GlcNAc(b1-3)GalNAc(b1-4)GlcNAc
# Method in brief: as §1
# [19] = biological target: GalNAc(b1-4)GlcNAc6S
# Method in brief: as §1
# [20] = biological target: GalNAc(b1-6)GalNAc
# Method in brief: as §1
# [21] = biological target: GalNAc3S(b1-4)GlcNAc
# Method in brief: as §1
# [22] = biological target: GalNAc3S(b1-4)GlcNAc3S
# Method in brief: as §1
# [23] = biological target: GalNAc3S(b1-4)[Fuc(a1-3)]GlcNAc
# Method in brief: as §1
# [24] = biological target: GalNAc4S6S(b1-4)GlcNAc
# Method in brief: as §1
# [25] = biological target: GalNAc6S(b1-4)GlcNAc
# Method in brief: as §1
# [26] = biological target: Glc(a1-4)Glc
# Method in brief: as §1
# [27] = biological target: Glc(a1-4)Glc(a1-4)Glc(a1-4)Glc
# Method in brief: as §1
# [28] = biological target: Glc(a1-6)Glc(a1-6)Glc
# Method in brief: as §1
# [29] = biological target: Glc(a1-6)Glc(a1-6)Glc(a1-6)Glc
# Method in brief: as §1
# [30] = biological target: Glc(b1-4)Glc
# Method in brief: as §1
# [31] = biological target: Glc(b1-6)Glc
# Method in brief: as §1
# [32] = biological target: GlcA(b1-3)Gal
# Method in brief: as §1
# [33] = biological target: GlcA(b1-3)GlcNAc
# Method in brief: as §1
# [34] = biological target: GlcA(b1-6)Gal
# Method in brief: as §1
# [35] = biological target: GlcA3S(b1-3)Gal(b1-4)GlcNAc(b1-2)Man
# Method in brief: as §1
# [36] = biological target: GlcA3S(b1-3)Gal(b1-4)GlcNAc(b1-3)Gal(b1-4)Glc
# Method in brief: as §1
# [37] = biological target: GlcNAc(a1-3)Gal(b1-4)GlcNAc
# Method in brief: as §1
binder,measurement,setting,value
B1,glycan array binding signal (z-score),[1],1.4
same,glycan array binding signal (z-score),[2],0.111
same,glycan array binding signal (z-score),[3],2.69
same,glycan array binding signal (z-score),[4],-0.394
same,glycan array binding signal (z-score),[5],-0.305
same,glycan array binding signal (z-score),[6],-0.274
same,glycan array binding signal (z-score),[7],-0.323
same,glycan array binding signal (z-score),[8],-0.261
same,glycan array binding signal (z-score),[9],-0.05
same,glycan array binding signal (z-score),[10],-0.135
same,glycan array binding signal (z-score),[11],0.011
same,glycan array binding signal (z-score),[12],0.087
same,glycan array binding signal (z-score),[13],-0.366
same,glycan array binding signal (z-score),[14],0.098
same,glycan array binding signal (z-score),[15],-0.206
same,glycan array binding signal (z-score),[16],-0.532
same,glycan array binding signal (z-score),[17],0.35
same,glycan array binding signal (z-score),[18],-0.394
same,glycan array binding signal (z-score),[19],-0.202
same,glycan array binding signal (z-score),[20],-0.464
same,glycan array binding signal (z-score),[21],-0.301
same,glycan array binding signal (z-score),[22],-0.312
same,glycan array binding signal (z-score),[23],-0.274
same,glycan array binding signal (z-score),[24],-0.159
same,glycan array binding signal (z-score),[25],-0.075
same,glycan array binding signal (z-score),[26],-0.521
same,glycan array binding signal (z-score),[27],0.137
same,glycan array binding signal (z-score),[28],-0.186
same,glycan array binding signal (z-score),[29],-0.355
same,glycan array binding signal (z-score),[30],-0.276
same,glycan array binding signal (z-score),[31],-0.517
same,glycan array binding signal (z-score),[32],-0.273
same,glycan array binding signal (z-score),[33],-0.289
same,glycan array binding signal (z-score),[34],0.431
same,glycan array binding signal (z-score),[35],-0.131
same,glycan array binding signal (z-score),[36],-0.046
same,glycan array binding signal (z-score),[37],-0.07
